Tested on: H1N1 A/PR/8/1934
Conditions: mouse, in vivo

Which results are given for CCOC(=O)C1=C[C@@H](OC(CC)CC)[C@H](NC(C)=O)[C@@H](N)C1 [oseltamivir, oseltamivir phosphate]?
mortality compared with control-treated animals: very similar; mice protected from lethality (iv, 15 mg/kg): 37.5%

From US9598481B2 (priority 2012, dated 2017)
